Results taken from the supplement of paper PMC4604168 (melanoma cell lines).
The list shows a part of the results. Many values rest on one well or one pass, so single values are uncertain.

What follows are molecules tested on COLO792 (assay: cell count relative to DMSO control; melanoma cells; higher = more viable cells). Conditions: library dose: low library concentration; 72 h.
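Note: cell number obtained by counting DAPI-stained nuclei in high-throughput microscope images with image analysis software, screen run in 1,536-well plates.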

Compound | cell count [%]
COc1ccc(C2=N[C@@H](c3ccc(Cl)cc3)[C@@H](c3ccc(Cl)cc3)N2C(=O)N2CCNC(=O)C2)c(OC(C)C)c1 [Nutlin-3] + C/C(O)=C(\C#N)C(=O)Nc1cc(Br)ccc1Br [LFM-A13] (first compound 0.1 µM, partner dose 2 µM) | 95.1
CCCCCCCCCCCCCCCCCCOP(=O)([O-])OC1CC[N+](C)(C)CC1 [Perifosine] + O=C(Oc1ccc([N+](=O)[O-])cc1)N1CCC(C(O)(c2ccc3c(c2)OCO3)c2ccc3c(c2)OCO3)CC1 [JZL184] (first compound 0.4 µM, partner dose 1 µM) | 100
CCN(CC)CCNC(=O)c1c(C)[nH]c(/C=C2\C(=O)Nc3ccc(F)cc32)c1C [sunitinib] + Cc1cc(SCc2sc(-c3ccc(C(F)(F)F)c(F)c3)nc2C)ccc1OCC(=O)O [GW0742] (first compound 0.4 µM, partner dose 2 µM) | 105
Nc1nc(F)nc2c1ncn2[C@@H]1O[C@H](CO)[C@@H](O)[C@@H]1O [fludarabine] + C/C(O)=C(\C#N)C(=O)Nc1cc(Br)ccc1Br [LFM-A13] (first compound 0.2 µM, partner dose 2 µM) | 83.6
Cc1cc(Nc2cc(N3CCN(C)CC3)nc(/C=C/c3ccccc3)n2)n[nH]1 + C/C(O)=C(\C#N)C(=O)Nc1cc(Br)ccc1Br [LFM-A13] (first compound 0.04 µM, partner dose 2 µM) | 89.7
NC1(c2ccc(-c3nc4ccn5c(=O)[nH]nc5c4cc3-c3ccccc3)cc2)CCC1 + Cc1cc(SCc2sc(-c3ccc(C(F)(F)F)c(F)c3)nc2C)ccc1OCC(=O)O [GW0742] (first compound 0.4 µM, partner dose 2 µM) | 80.3
Nc1ncn([C@H]2C[C@H](O)[C@@H](CO)O2)c(=O)n1 [decitabine] + C/C(O)=C(\C#N)C(=O)Nc1cc(Br)ccc1Br [LFM-A13] (first compound 0.1 µM, partner dose 2 µM) | 88.2
CCCCCCCCc1ccc(CCC(N)(CO)CO)cc1 [fingolimod] + C/C(O)=C(\C#N)C(=O)Nc1cc(Br)ccc1Br [LFM-A13] (first compound 2 µM, partner dose 2 µM) | 95.1
CC[C@]1(O)C[C@H]2CN(CCc3c([nH]c4ccccc34)[C@@](C(=O)OC)(c3cc4c(cc3OC)N(C=O)[C@H]3[C@@](O)(C(=O)OC)[C@H](OC(C)=O)[C@]5(CC)C=CCN6CC[C@]43[C@@H]65)C2)C1 [vincristine] + Cc1cc(SCc2sc(-c3ccc(C(F)(F)F)c(F)c3)nc2C)ccc1OCC(=O)O [GW0742] (first compound 0.0001 µM, partner dose 2 µM) | 105
Cc1ccc(Nc2nccc(N(C)c3ccc4c(C)n(C)nc4c3)n2)cc1S(N)(=O)=O [Pazopanib] + C/C(O)=C(\C#N)C(=O)Nc1cc(Br)ccc1Br [LFM-A13] (first compound 0.4 µM, partner dose 2 µM) | 99.5
COc1cc([C@@H]2c3cc4c(cc3[C@@H](O[C@@H]3O[C@@H]5CO[C@@H](C)O[C@H]5[C@H](O)[C@H]3O)[C@H]3COC(=O)[C@H]23)OCO4)cc(OC)c1O [etoposide] + Cc1cc(SCc2sc(-c3ccc(C(F)(F)F)c(F)c3)nc2C)ccc1OCC(=O)O [GW0742] (first compound 0.02 µM, partner dose 2 µM) | 85.6
Cc1cc(Nc2cc(N3CCN(C)CC3)nc(/C=C/c3ccccc3)n2)n[nH]1 + Cc1cc(SCc2sc(-c3ccc(C(F)(F)F)c(F)c3)nc2C)ccc1OCC(=O)O [GW0742] (first compound 0.04 µM, partner dose 2 µM) | 125
Cn1cnc2c(F)c(Nc3ccc(Br)cc3Cl)c(C(=O)NOCCO)cc21 [selumetinib] + C/C(O)=C(\C#N)C(=O)Nc1cc(Br)ccc1Br [LFM-A13] (first compound 0.015 µM, partner dose 2 µM) | 90.9
NC(=O)c1ccc(N(C(N)=O)c2c(F)cccc2F)nc1-c1ccc(F)cc1F + C/C(O)=C(\C#N)C(=O)Nc1cc(Br)ccc1Br [LFM-A13] (first compound 0.4 µM, partner dose 2 µM) | 87.1
O=C(O)[C@@H]1[O][Sb](=[O])([O][Sb]2(=[O])[O][C@H]([C@H](O)CO)[C@H](O)[C@H](C(=O)O)[O]2)[O][C@H]([C@H](O)CO)[C@@H]1O (stereo not given in full) [stibogluconate] + O=C(Oc1ccc([N+](=O)[O-])cc1)N1CCC(C(O)(c2ccc3c(c2)OCO3)c2ccc3c(c2)OCO3)CC1 [JZL184] (first compound 2 µM, partner dose 1 µM) | 96.8
Cc1ccc(Nc2nccc(N(C)c3ccc4c(C)n(C)nc4c3)n2)cc1S(N)(=O)=O [Pazopanib] + O=C(Oc1ccc([N+](=O)[O-])cc1)N1CCC(C(O)(c2ccc3c(c2)OCO3)c2ccc3c(c2)OCO3)CC1 [JZL184] (first compound 0.4 µM, partner dose 1 µM) | 106
CNC(=O)c1cc(Oc2ccc(NC(=O)Nc3ccc(Cl)c(C(F)(F)F)c3)cc2)ccn1 [sorafenib] + O=C(Oc1ccc([N+](=O)[O-])cc1)N1CCC(C(O)(c2ccc3c(c2)OCO3)c2ccc3c(c2)OCO3)CC1 [JZL184] (first compound 0.4 µM, partner dose 1 µM) | 97.3
CNC(=O)c1cc(Oc2ccc(NC(=O)Nc3ccc(Cl)c(C(F)(F)F)c3)cc2)ccn1 [sorafenib] + C/C(O)=C(\C#N)C(=O)Nc1cc(Br)ccc1Br [LFM-A13] (first compound 0.4 µM, partner dose 2 µM) | 118
CCCS(=O)(=O)Nc1ccc(F)c(C(=O)c2c[nH]c3ncc(Cl)cc23)c1F + O=C(Oc1ccc([N+](=O)[O-])cc1)N1CCC(C(O)(c2ccc3c(c2)OCO3)c2ccc3c(c2)OCO3)CC1 [JZL184] (first compound 0.08 µM, partner dose 1 µM) | 100
CCCCCCCCc1ccc(CCC(N)(CO)CO)cc1 [fingolimod] + O=C(Oc1ccc([N+](=O)[O-])cc1)N1CCC(C(O)(c2ccc3c(c2)OCO3)c2ccc3c(c2)OCO3)CC1 [JZL184] (first compound 2 µM, partner dose 1 µM) | 93.2
Cc1cn(-c2cc(NC(=O)c3ccc(C)c(Nc4nccc(-c5cccnc5)n4)c3)cc(C(F)(F)F)c2)cn1 [nilotinib] + O=C(Oc1ccc([N+](=O)[O-])cc1)N1CCC(C(O)(c2ccc3c(c2)OCO3)c2ccc3c(c2)OCO3)CC1 [JZL184] (first compound 0.2 µM, partner dose 1 µM) | 104
CN(c1ncccc1CNc1nc(Nc2ccc3c(c2)CC(=O)N3)ncc1C(F)(F)F)S(C)(=O)=O + Cc1cc(SCc2sc(-c3ccc(C(F)(F)F)c(F)c3)nc2C)ccc1OCC(=O)O [GW0742] (first compound 0.08 µM, partner dose 2 µM) | 101
C[C@@H](Oc1cc(-c2cnn(C3CCNCC3)c2)cnc1N)c1c(Cl)ccc(F)c1Cl [Crizotinib] + Cc1cc(SCc2sc(-c3ccc(C(F)(F)F)c(F)c3)nc2C)ccc1OCC(=O)O [GW0742] (first compound 0.2 µM, partner dose 2 µM) | 112
O=c1[nH]nc(Sc2ncc([N+](=O)[O-])s2)n1-c1ccc2c(c1)OCCO2 + Cc1cc(SCc2sc(-c3ccc(C(F)(F)F)c(F)c3)nc2C)ccc1OCC(=O)O [GW0742] (first compound 0.2 µM, partner dose 2 µM) | 106
CC[C@]1(O)C[C@H]2CN(CCc3c([nH]c4ccccc34)[C@@](C(=O)OC)(c3cc4c(cc3OC)N(C=O)[C@H]3[C@@](O)(C(=O)OC)[C@H](OC(C)=O)[C@]5(CC)C=CCN6CC[C@]43[C@@H]65)C2)C1 [vincristine] + O=C(Oc1ccc([N+](=O)[O-])cc1)N1CCC(C(O)(c2ccc3c(c2)OCO3)c2ccc3c(c2)OCO3)CC1 [JZL184] (first compound 0.0001 µM, partner dose 1 µM) | 90.9
CC(=O)c1c(C)c2cnc(Nc3ccc(N4CCNCC4)cn3)nc2n(C2CCCC2)c1=O [palbociclib] + C/C(O)=C(\C#N)C(=O)Nc1cc(Br)ccc1Br [LFM-A13] (first compound 0.04 µM, partner dose 2 µM) | 57.7
CN(c1ncccc1CNc1nc(Nc2ccc3c(c2)CC(=O)N3)ncc1C(F)(F)F)S(C)(=O)=O + C/C(O)=C(\C#N)C(=O)Nc1cc(Br)ccc1Br [LFM-A13] (first compound 0.08 µM, partner dose 2 µM) | 81.3
O=C(Nc1cc(C(F)(F)F)cc(C(F)(F)F)c1)c1cc(Cl)ccc1O + C/C(O)=C(\C#N)C(=O)Nc1cc(Br)ccc1Br [LFM-A13] (first compound 0.016 µM, partner dose 2 µM) | 105
N#CC[C@H](C1CCCC1)n1cc(-c2ncnc3[nH]ccc23)cn1 [ruxolitinib] + C/C(O)=C(\C#N)C(=O)Nc1cc(Br)ccc1Br [LFM-A13] (first compound 1 µM, partner dose 2 µM) | 99.3
O=C(/C=C/c1cccnc1)NCCCCC1CCN(C(=O)c2ccccc2)CC1 + C/C(O)=C(\C#N)C(=O)Nc1cc(Br)ccc1Br [LFM-A13] (first compound 0.01 µM, partner dose 2 µM) | 51.8
